Results from the supplement of paper PMC9446081.
Out of some 39,000 compounds screened, about 220 (0.56%) showed activity. The list shows a part of the results.

Test system: Escherichia coli K-12 BW25113
Test: relative growth (OD600 normalised to plate interquartile mean) (fraction); higher = less growth inhibition, active = 0.2 or less
Conditions: 50 µM; LB; incubation time: overnight (16-24 h)
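Further: static incubation at 37 °C against the wild-type strain, values averaged over two biological replicates.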

Q: How did the relative growth turn out when C[C@H](CO)N1C[C@H](C)[C@H](CN(C)S(=O)(=O)c2cccs2)OCCCC[C@H](C)Oc2ccc(NS(C)(=O)=O)cc2C1=O was run?
A: Its relative growth is inactive: 1.01.

Q: For C[C@@H]1CN([C@@H](C)CO)S(=O)(=O)c2ccc(-c3ccc(F)cc3)cc2O[C@@H]1CN(C)S(C)(=O)=O, which relative growth is on record?
A: The relative growth was inactive: 1.

Q: Which relative growth does the source give for C[C@@H]1CN([C@H](C)CO)S(=O)(=O)c2ccc(C#CCN(C)C)cc2O[C@H]1CN(C)Cc1ccccn1 here?
A: Its relative growth is inactive: 0.999.

Q: For C[C@@H]1CN([C@H](C)CO)C(=O)c2cc(NS(=O)(=O)c3ccc(F)cc3)ccc2O[C@@H](C)CCCCO[C@H]1CN(C)Cc1ccc(Cl)c(Cl)c1, which relative growth is on record?
A: Its relative growth is inactive: 0.97.

Q: Which relative growth does the source give for C[C@@H]1CN([C@@H](C)CO)C(=O)Cc2cc(NC(=O)C3CC3)ccc2O[C@H]1CN(C)S(=O)(=O)c1cccs1 here?
A: Its relative growth is inactive: 0.999.

Q: How did the relative growth turn out when Cc1ccc(S(=O)(=O)N[C@@H](Cc2ccccc2)C(=O)NCCCn2cc(-c3ccc(C(=O)NO)s3)nn2)cc1 was run?
A: Its relative growth is inactive: 0.978.

Q: With C[C@H](CO)N1C[C@H](C)[C@H](CN(C)C(=O)NC2CCCCC2)OCCCC[C@H](C)Oc2ccc(NC(=O)c3ccccc3)cc2C1=O as the compound, how does the relative growth read?
A: The relative growth was inactive: 0.994.

Q: NCC[C@@H]1CC[C@@H](NC(=O)Cc2ccncc2)[C@H](CO)O1 was tested. Which relative growth did it give?
A: Its relative growth is inactive: 0.966.

Q: Nc1nc(O[C@@H](c2ccc(-c3cccc(F)c3)cc2)C(F)(F)F)cc(-c2ccc(C[C@H](N)C(=O)O)cc2)n1 was tested. Which relative growth did it give?
A: The relative growth was inactive: 0.967.

Q: Which relative growth does the source give for O=C(C[C@H]1C=C[C@@H](NC(=O)c2cnccn2)[C@H](CO)O1)NCc1ccccc1F here?
A: The relative growth was inactive: 0.998.

Q: With C=CCC[C@H](Cc1ccc(F)cc1)C(=O)OC[C@H](Cc1c[nH]c2ccccc12)NC(=O)[C@H](CC=C)CC(=O)N[C@@H](CO)Cc1ccccc1 as the compound, how does the relative growth read?
A: The relative growth was inactive: 1.07.

Q: Which relative growth does the source give for Cc1ccc(S(=O)(=O)N2C[C@H](O)COC[C@H]3O[C@H](CC(=O)N4CCc5ccccc5C4)CC[C@@H]32)cc1 here?
A: Its relative growth is inactive: 0.967.

Q: For C[C@@H]1CN([C@H](C)CO)C(=O)c2cc(NC(=O)CCC(F)(F)F)ccc2O[C@@H](C)CCCCO[C@@H]1CN(C)C(=O)c1ccccc1, which relative growth is on record?
A: Its relative growth is inactive: 1.

Q: COc1ccc(S(=O)(=O)N(C)C[C@H]2OCCCC[C@@H](C)Oc3ccc(NC(=O)CCC(F)(F)F)cc3C(=O)N([C@H](C)CO)C[C@H]2C)cc1 was tested. Which relative growth did it give?
A: Its relative growth is inactive: 1.01.

Q: With COc1cccc(NC(=O)N2C[C@H](O)COC[C@H]3O[C@H](CC(=O)NCc4ccccc4F)CC[C@@H]32)c1 as the compound, how does the relative growth read?
A: Its relative growth is inactive: 0.986.

Q: CO[C@H]1CN(C)C(=O)c2ccc(NS(=O)(=O)c3cn(C)cn3)cc2OC[C@H](C)N(CC2CC2)C[C@H]1C was tested. Which relative growth did it give?
A: Its relative growth is inactive: 0.99.

Q: COCC#Cc1ccc2c(c1)O[C@@H](CN(C)C(=O)c1ccccc1F)[C@@H](C)CN([C@@H](C)CO)S2(=O)=O was tested. Which relative growth did it give?
A: Its relative growth is inactive: 1.03.

Q: With C[C@@H]1CN([C@@H](C)CO)C(=O)Cc2cc(NS(C)(=O)=O)ccc2O[C@@H]1CN(C)Cc1ccc(C(=O)O)cc1 as the compound, how does the relative growth read?
A: The relative growth was inactive: 0.921.

Q: How did the relative growth turn out when Cc1ccc(-c2csc(-c3ccc(CN)cc3)n2)cc1 was run?
A: Its relative growth is inactive: 0.97.

Q: For CCCC(=O)Nc1ccc2c(c1)OC[C@@H](C)N(C(=O)Cc1cccnc1)C[C@@H](C)[C@H](OC)CN(C)C2=O, which relative growth is on record?
A: The relative growth was inactive: 1.02.

Q: Which relative growth does the source give for C[C@H]1CN([C@@H](C)CO)C(=O)c2ccccc2-c2ccccc2CO[C@@H]1CN(C)C(=O)Nc1cccc(Cl)c1Cl here?
A: The relative growth was inactive: 1.

Q: CCCN(C)C[C@H]1OCCCC[C@@H](C)Oc2ccc(NC(=O)Nc3c(C)noc3C)cc2C(=O)N([C@H](C)CO)C[C@@H]1C was tested. Which relative growth did it give?
A: The relative growth was inactive: 1.01.

Q: COc1ccc(-c2cc(=O)c3c(OC)cc(OC)cc3o2)cc1 was tested. Which relative growth did it give?
A: Its relative growth is inactive: 1.08.

Q: With C[C@@H]1CN([C@H](C)CO)C(=O)c2cccc(NS(=O)(=O)c3ccc(Cl)cc3)c2O[C@@H]1CN(C)C(=O)Nc1ccc(C(F)(F)F)cc1 as the compound, how does the relative growth read?
A: The relative growth was inactive: 0.99.

Q: Which relative growth does the source give for CCN1[C@H](C(=O)NCCc2cn(C)cn2)[C@@H](CO)[C@@H]2Cn3c(ccc(-c4cccnc4)c3=O)[C@@H]21 here?
A: Its relative growth is inactive: 1.02.

Q: For C[C@@H]1CCCCO[C@H](CN(C)C(=O)Nc2cccc3ccccc23)[C@@H](C)CN([C@H](C)CO)C(=O)c2cc(NS(=O)(=O)c3ccc(Cl)cc3)ccc2O1, which relative growth is on record?
A: Its relative growth is inactive: 1.03.

Q: Which relative growth does the source give for COc1ccc(NC(=O)Nc2ccc3c(c2)C(=O)N([C@@H](C)CO)C[C@@H](C)[C@@H](CN(C)C(=O)Cc2ccccc2)OCCCC[C@H](C)O3)cc1 here?
A: The relative growth was inactive: 0.991.

Q: With Cc1ccc(S(=O)(=O)N2C[C@H](O)COC[C@H]3O[C@H](CC(=O)N[C@@H]4CCN(Cc5ccccc5)C4)CC[C@@H]32)cc1 as the compound, how does the relative growth read?
A: Its relative growth is inactive: 0.998.

Q: With C[C@H](CO)N1C[C@H](C)[C@@H](CN(C)C(=O)Nc2ccnc(N3CCOCC3)c2)OCc2cn(nn2)CCCC1=O as the compound, how does the relative growth read?
A: Its relative growth is inactive: 0.972.

Q: For C[C@@H]1CCCCO[C@H](CN(C)C)[C@@H](C)CN([C@H](C)CO)C(=O)c2cc(NC(=O)Nc3ccc(C(F)(F)F)cc3)ccc2O1, which relative growth is on record?
A: Its relative growth is inactive: 0.974.

Q: Which relative growth does the source give for C[C@H](CO)N1C[C@H](C)[C@@H](CN(C)C(=O)Cc2ccccn2)Oc2ncc(-c3cccc(C(=O)N(C)C)c3)cc2C1=O here?
A: Its relative growth is inactive: 0.971.

Q: How did the relative growth turn out when C[C@H](O)C#Cc1ccc2c(c1)O[C@H](CN(C)C(=O)Cc1ccccn1)[C@H](C)CN([C@H](C)CO)S2(=O)=O was run?
A: The relative growth was inactive: 0.989.

Q: Which relative growth does the source give for C[C@@H]1CN([C@@H](C)CO)C(=O)Cc2cc(NS(=O)(=O)c3ccc(Cl)cc3)ccc2O[C@@H]1CN(C)Cc1ccc(Oc2ccccc2)cc1 here?
A: The relative growth was inactive: 0.989.

Q: For CCCNC(=O)N1C[C@H](O)COC[C@@H]2O[C@H](CC(=O)N3CCOCC3)CC[C@H]21, which relative growth is on record?
A: The relative growth was inactive: 0.974.

Q: C[C@@H]1CCCCO[C@H](CN(C)Cc2ccc3c(c2)OCO3)[C@@H](C)CN([C@H](C)CO)C(=O)c2cc(NS(=O)(=O)c3cccs3)ccc2O1 was tested. Which relative growth did it give?
A: Its relative growth is inactive: 1.

Q: For Nc1nc(=O)n([C@@H]2O[C@H](CO)[C@@H](O)[C@@H]2F)cc1I, which relative growth is on record?
A: Its relative growth is inactive: 0.614.

Q: How did the relative growth turn out when C[C@H]1CN([C@@H](C)CO)C(=O)Cc2cc(NS(=O)(=O)c3cccs3)ccc2O[C@@H]1CN(C)C(=O)Nc1cccc2ccccc12 was run?
A: Its relative growth is inactive: 1.
